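Assay format: 96-well plates, 48-hour exposure. Here, GI50 denotes the concentration required for 50% inhibition of growth.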 Activity calls are given as the source filed them. Cut-off read from the data, not from the text of the source: active = GI50 up to about 1.1 µM and inactive = higher.
What follows are compounds tested on NCI-H322M (assay: inhibition of tumour cell growth, NCI panel, 48 h).

Row | SMILES | GI50
1 | CN1CCN(C2=CC(=O)c3c(O)ccc(O)c3C2=O)CC1 | inactive: 1.54 µM
2 | O=c1c(-c2ccc(O)cc2)coc2cc(OC3OC(CO)C(O)C(O)C3O)cc(O)c12 (stereo not drawn) | inactive: > 100 µM
3 | C=CC(=O)N1C/C(=C\c2ccc(Cl)c(Cl)c2)C(=O)/C(=C/c2ccc(Cl)c(Cl)c2)C1 | active: 0.296 µM
4 | NC(=O)Nc1n[nH]c(-c2ccccc2)n1 | inactive: > 100 µM
5 | COc1cc(NS(C)(=O)=O)ccc1Nc1cc(C)nc2ccc3[nH]ccc3c12 | inactive: > 100 µM
6 | Cc1c(-c2ccccc2)c(C#N)c2nnc(C(N)=O)c(N)n12 | inactive: > 100 µM
7 | O=C1C=C/C(=N/c2ccccc2)c2ccccc21 | inactive: 6.73 µM
8 | CC(=O)OC1=C(CC(C)(C)C)C(=O)c2ccccc2C1=O | inactive: 92.3 µM
9 | CC1CC(NN(C)C)C2(C(N)=O)C(N)=NC(=O)C12C#N (stereo not drawn) | inactive: > 100 µM
10 | CC(C)C1CCC/C=C/C=C/C=C/C=C/C(OC2OC(C)C(O)C(N)C2O)CC2OC(O)(CC(O)CC(O)C(O)CCC(=O)O1)CC(O)C2C(=O)O (stereo not drawn) | inactive: > 52.5 µM
11 | CCOc1ccc(Nc2nc3c(s2)C(=O)c2ccccc2C3=O)cc1 | inactive: 18.7 µM
12 | CCOC(=O)c1csc(NC(=O)C(C)N2CCOCC2)n1 (stereo not drawn) | inactive: > 100 µM
13 | CC(=O)Nc1ccc(NNc2cc(=O)n(C)c(=O)[nH]2)cc1 | inactive: 13.6 µM
14 | O=C(O)CSc1n[nH]c(=O)[nH]c1=O | inactive: > 100 µM
15 | O=c1c2cc([N+](=O)[O-])ccc2n(Cc2ccccc2)n1Cc1ccccc1 | inactive: 27.2 µM
16 | CCOC(=O)/C=C/[C@H](O[Si](c1ccccc1)(c1ccccc1)c1ccccc1)C(C)(C)C | inactive: > 31.6 µM
17 | CC(CO)C1C[C@H](O)[C@@]2(C)CC(=O)C=C(CO)[C@@H]2C1 (stereo partly drawn) | inactive: > 100 µM
18 | N#Cc1ccc(Nc2cnc3cc(N)ccc3n2)cc1 | inactive: 73.5 µM
19 | C/C(=N\NC(=S)N1CCN(c2ccccn2)CC1)c1ncccn1 | active: 0.00938 µM

Row | SMILES | GI50
20 | Cn1c(-c2ccc(C=O)o2)ccc1-c1ccc(C=O)o1 | inactive: > 100 µM
21 | COc1ccc(C2C3=C(CCCC3=O)N(c3ccccc3)C3=C2C(=O)CCC3)cc1 | inactive: > 100 µM
22 | Nc1nc2ncn(CCO)c2c(=S)[nH]1 | inactive: > 100 µM
23 | Cc1cc(CN(Cc2ccccc2)Cc2nc3ccccc3[nH]2)c(O)c(CN(Cc2nc3ccccc3[nH]2)Cc2nc3ccccc3[nH]2)c1 | inactive: 8.13 µM
24 | Cn1nc2ccc([N+](=O)[O-])cc2[n+]1[O-] | inactive: > 100 µM
25 | C1=C2C3=[N+](CCCC3)CC2Cc2ccsc21 (stereo not drawn) | inactive: > 100 µM
26 | COc1ccc(/C=C2\SC(c3ccc(OC)cc3)N(NC(=O)Cc3ccccc3)C2=O)cc1 (stereo not drawn) | inactive: > 100 µM
27 | CC1OC(n2ccc3ccc([N+](=O)[O-])cc32)C(O)C(O)C1O (stereo not drawn) | inactive: > 100 µM
28 | CN(C)C(=S)Oc1ccc2ccc(=O)oc2c1 | inactive: > 100 µM
29 | Oc1ccc([Te]CCNCC[Te]c2ccc(O)cc2)cc1 | inactive: 27.4 µM
30 | O=[N+]([O-])c1ccc2c3c1[C@H]1O[C@H]1c1cccc(c1-3)[C@@H]1O[C@H]21 | inactive: 6.22 µM
31 | S=C1NC2=C(COC/C2=C\c2ccccc2Cl)C(c2ccccc2Cl)N1 (stereo not drawn) | inactive: 43.4 µM
32 | CCN(CC)CCC1CCCCN1CC(=O)N1c2ccccc2NC(=O)CC1C (stereo not drawn) | inactive: > 100 µM
33 | CC(C)(C)c1cc(-c2ccc(-c3cc(C(C)(C)C)c(O)c(C(C)(C)C)c3)cc2)cc(C(C)(C)C)c1O | inactive: > 100 µM
34 | C=C1C(=O)C23C(O)C1CCC2C12CO[C@]3(O)[C@@H](O)C1C(C)(C)CCC2O (stereo partly drawn) | inactive: 16.2 µM
35 | CN(Cc1cnc2nc(N)nc(N)c2n1)c1ccc(C(=O)NCCS(=O)(=O)O)cc1 | inactive: > 100 µM
36 | N#C/C(=C\c1cc(O)ccc1O)C(N)=O | inactive: 35.7 µM
37 | COc1ccc2nc3ccccc3c(NCCN(CCCl)CCCl)c2c1 | active: 0.979 µM
38 | O=C1C(c2ccccc2)=[N+]([O-])c2ccccc21 | inactive: 16.7 µM

From ChEMBL document CHEMBL1201862, “PubChem BioAssay data set” (2004)
